# According to PubChem BioAssay AID1347165 (National Center for Advancing Translational Sciences (NCATS), 2019):
# Where “and” joins values, the source holds several entries; their conditions need not be identical. Identical values can stand only once. Screen size: about 220,000 compounds; about 5,700 (2.6%) were called active. This list was built around the results that the source calls inconclusive (neither active nor inactive); the mix of calls is not that of the screen. Calls follow the shape of the dose curve; as a rule, active = well fitted inhibition curve with a large enough effect; inconclusive = small, poorly fitted or top-dose-only effect; inactive = no such curve, though single readings can be large or run the other way. A potency beside an inconclusive call is a rough fit, not a confirmed value.
# Molecular target: Lysine-specific demethylase 5B (Homo sapiens) (UniProt Q9UGL1)
# Test: Primary screen for KDM5B Histone Demethylases FDH-coupled qHTS; also: nearly all actives have a fitted effect of over 70% in size; as to activity change, negative = inhibition: 0% is about no effect
# Conditions: FDH-coupled NADH fluorescence (FDH is formaldehyde dehydrogenase); activity change, negative = inhibition: at 57.7 µM (top of the series) unless noted
# Procedure, shortened: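 KDM5BΔAP (200 nM final) in 50 mM HEPES pH 7.5, 0.01% Tween-20 was preincubated 10 min at RT with compound over a concentration range. Substrate mix (H3K4me3 12.5 µM, α-KG 25 µM, Fe²⁺, ascorbate, NAD⁺, FDH) was added, and NADH fluorescence change over 30 min gave dose-response curves.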
# Potency is read from the fitted curve at half-maximal effect; tags tell the direction and shape of the fitted curve.
# Chain of UniProt Q9UGL1 (Q9UGL1 whole entry, looked up): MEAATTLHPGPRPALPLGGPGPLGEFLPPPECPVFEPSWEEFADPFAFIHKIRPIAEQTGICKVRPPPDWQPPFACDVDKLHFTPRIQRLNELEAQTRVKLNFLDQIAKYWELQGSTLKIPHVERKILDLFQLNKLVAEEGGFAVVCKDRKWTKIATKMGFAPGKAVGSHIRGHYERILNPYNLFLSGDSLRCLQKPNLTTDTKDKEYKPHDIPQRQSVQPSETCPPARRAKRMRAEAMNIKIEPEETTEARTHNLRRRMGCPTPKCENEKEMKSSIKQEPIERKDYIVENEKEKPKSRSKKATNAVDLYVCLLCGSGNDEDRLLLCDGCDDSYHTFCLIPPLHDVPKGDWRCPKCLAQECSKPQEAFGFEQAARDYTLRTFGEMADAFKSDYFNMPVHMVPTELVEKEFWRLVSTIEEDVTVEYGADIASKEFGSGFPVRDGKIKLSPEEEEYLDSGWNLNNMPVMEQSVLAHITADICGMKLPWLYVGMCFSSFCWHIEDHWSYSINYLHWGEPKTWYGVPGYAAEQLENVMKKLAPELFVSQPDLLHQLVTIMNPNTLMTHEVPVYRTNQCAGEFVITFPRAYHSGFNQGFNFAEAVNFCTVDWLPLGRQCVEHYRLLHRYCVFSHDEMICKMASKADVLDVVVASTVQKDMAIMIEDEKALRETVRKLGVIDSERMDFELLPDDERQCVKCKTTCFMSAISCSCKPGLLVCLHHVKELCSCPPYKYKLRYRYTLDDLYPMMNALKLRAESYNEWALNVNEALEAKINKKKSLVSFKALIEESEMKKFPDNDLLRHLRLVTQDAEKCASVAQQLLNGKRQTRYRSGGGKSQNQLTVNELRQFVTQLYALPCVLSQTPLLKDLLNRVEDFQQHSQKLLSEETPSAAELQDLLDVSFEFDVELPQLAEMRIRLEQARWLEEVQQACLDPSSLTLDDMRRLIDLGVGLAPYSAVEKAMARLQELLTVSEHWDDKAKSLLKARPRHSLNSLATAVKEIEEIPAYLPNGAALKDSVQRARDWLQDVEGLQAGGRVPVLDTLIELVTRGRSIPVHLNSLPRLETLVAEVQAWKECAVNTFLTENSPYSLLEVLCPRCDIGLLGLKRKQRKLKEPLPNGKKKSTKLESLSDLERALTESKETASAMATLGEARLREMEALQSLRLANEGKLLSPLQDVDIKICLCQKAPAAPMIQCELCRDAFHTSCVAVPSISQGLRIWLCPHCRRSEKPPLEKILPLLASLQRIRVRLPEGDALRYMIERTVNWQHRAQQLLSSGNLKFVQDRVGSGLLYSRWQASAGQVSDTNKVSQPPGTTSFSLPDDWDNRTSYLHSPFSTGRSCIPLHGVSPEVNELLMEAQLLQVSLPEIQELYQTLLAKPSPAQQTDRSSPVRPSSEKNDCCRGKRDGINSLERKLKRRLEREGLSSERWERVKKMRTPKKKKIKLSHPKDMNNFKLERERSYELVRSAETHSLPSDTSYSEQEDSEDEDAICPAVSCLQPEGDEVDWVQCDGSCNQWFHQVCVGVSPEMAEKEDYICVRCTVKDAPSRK
Structure (SMILES),Potency,"activity change, negative = inhibition"
Cc1ccn2c(Nc3ccc4c(c3)OCCO4)c(-c3ccsc3)nc2c1,"inconclusive: 28.2 µM [inhibitor, partial curve, poor fit]",–
Fc1ccc(CN2CCNc3cc(Nc4ccccc4)ncc3C2)cc1F,"inconclusive: 39.8 µM [inhibitor, partial curve, poor fit]",–
Cc1c(C(=O)N2CCOCC2)oc2c1-c1nn(CC(=O)NCc3cccc(Cl)c3)cc1CC2,"inconclusive: 15.8 µM [inhibitor, partial curve, poor fit]",–
O=C(NC1CC1)c1cccc(NC(=O)c2cn(-c3ccccc3)nc2-c2cccnc2)c1,"inconclusive: 39.8 µM [inhibitor, single point]",–
COc1ccccc1NC(=O)COc1ccc(-c2nn(C)c(=O)c3ccccc23)cc1,"inconclusive: 25.1 µM [inhibitor, single point] and inconclusive: 39.8 µM [inhibitor, partial curve, poor fit]",–
CC(=O)N1c2ccc(S(=O)(=O)Nc3ccc(Cl)cc3C)cc2CC1C (stereo not given),–,inconclusive: -35.6% [inhibitor]
CN(C)CCN(Cc1cccc(F)c1)C(=O)c1ccc(S(C)(=O)=O)cc1,inactive,–
Cc1ccc(/C=C/C(=O)Nc2ccccc2C(N)=O)o1,"inconclusive: 35.5 µM [inhibitor, single point]",–
COc1cccc(CNC(=O)c2cc(Sc3cccc(Cl)c3)nc3ccccc23)c1,"inconclusive: 31.6 µM [inhibitor, partial curve, poor fit]",–
Cn1ncc2c(N3CCN(c4ccccc4)CC3)nc(N3CCOCC3)nc21,"inconclusive: 39.8 µM [inhibitor, single point]",–
COc1ccc2[nH]c3c(c2c1)CCNC31CCNCC1,"inconclusive: 2.82 µM [inhibitor, partial curve, poor fit]",–
COc1ccc2c(C)c(CC(=O)N(C)C3CCS(=O)(=O)C3)c(=O)oc2c1 (stereo not given),"inconclusive: 25.1 µM [inhibitor, partial curve, poor fit]",–
CCOc1cccc(C(=O)Nc2nc3c(s2)CC(C(C)(C)C)CC3)c1 (stereo not given),"inconclusive: 5.62 µM [inhibitor, partial curve, poor fit]",–
CCc1nc2c(c(-c3ccc(OC)cc3)n1)CCN(Cc1ccc(C#N)cc1)CC2,"inconclusive: 44.7 µM [inhibitor, partial curve]",–
O=C(NCc1ccco1)c1ccc2c(c1)N(Cc1ccc(F)cc1)C(=O)c1ccccc1S2(=O)=O,"inconclusive: 14.1 µM [inhibitor, partial curve, poor fit]",–
CC(NC(=O)Cc1cccn1-c1ccc(Cl)cc1)c1cccnc1 (stereo not given),inactive,–
C=C(Cl)COc1ccc(C(=O)NC)cc1,inactive,–
CC(C)Cc1nc(NCC2CCCO2)c(C#N)c2c1CCCC2 (stereo not given),"inconclusive: 17.8 µM [inhibitor, partial curve, poor fit]",–
COCc1ccc2c(c1)c(OC(C)(C)C(=O)N1CC(O)C1)nn2Cc1cccnc1,inactive,–
CCN(CC)CCCNC(=O)C(C)C1CCN(C(=O)c2ccc3nc(-c4ccccc4)oc3c2)CC1 (stereo not given),inactive,–

Structure (SMILES),Potency,"activity change, negative = inhibition"
COC(=O)N1CCN(c2nc3ncccc3o2)CC1,"inconclusive: 35.5 µM [inhibitor, partial curve, poor fit]",–
O=C(Cc1ccc(F)cc1)N1CCC2(CC1)CN(Cc1ccccc1)CC2CO (stereo not given),"inconclusive: 31.6 µM [inhibitor, single point]",–
O=C1CCN(C(=O)c2cc3ccccc3[nH]2)CCCC(CO)CCN1 (stereo not given),"inconclusive: 35.5 µM [inhibitor, single point]",–
CCCCN(CC)CCCNC(=O)Cn1ncc2c([nH]c3ccc(C)cc32)c1=O,"inconclusive: 5.01 µM [inhibitor, full curve, poor fit]",–
COc1ccc(NC(=O)N2CC(C(=O)N(C)C)C3(CCOCC3)C2)c(OC)c1 (stereo not given),inactive,–
COC(=O)[C@@H]1Cc2ncn(Cc3ccc(Cl)cc3)c2CN1S(=O)(=O)c1cccs1,"inconclusive: 35.5 µM [inhibitor, partial curve, poor fit]",–
CC(C)(CNc1nc(-c2ccccc2)nc2ccccc12)N1CCOCC1,inactive,–
CC(=O)N/N=C/c1cc(Cl)ccc1OCCOCCOc1ccc(C)cc1,inactive,–
Cc1ccc(-c2nn(C)c(=O)c3c2CCCC3)cc1S(=O)(=O)N1CCCC1,inactive,–
CC(C)OCc1ccc(CNC(=O)CNC(=O)C2CCCC2)cc1,inactive,–
NS(=O)(=O)c1ccc(-c2ccc(/C=N/Nc3ccc(S(=O)(=O)Nc4ccccc4)cc3[N+](=O)[O-])o2)cc1,"inconclusive: 35.5 µM [inhibitor, partial curve, poor fit]",–
C[S+](=O)([O-])CCn1ncc2cc(OCc3cccc(-c4ccoc4)c3)ccc21,"inconclusive: 39.8 µM [inhibitor, partial curve, poor fit]",–
CN(C)c1ccc(Nc2ncnc3sc4c(c23)CCCC4)cc1,"inconclusive: 22.4 µM [inhibitor, partial curve, poor fit]",–
FC(F)(F)c1cccc(C2=NOC3(CCN(Cc4ccccc4)C3)C2)c1 (stereo not given),"inconclusive: 44.7 µM [inhibitor, partial curve, poor fit]",–
COC(=O)c1ccccc1NC(=O)CCCn1c(=O)c2cccn2c2cccnc21,"inconclusive: 1 µM [inhibitor, partial curve, poor fit]",–
CCOC(=O)C(Cc1c[nH]c2ccccc12)NC(=O)COc1ccc(CC)cc1 (stereo not given),"inconclusive: 17.8 µM [inhibitor, partial curve, poor fit]",–
CC(C)Oc1ccc(C(=O)NCc2coc(-c3cccs3)n2)cc1,"inconclusive: 28.2 µM [inhibitor, partial curve, poor fit]",–
CCCCNc1oc(-c2ccc(COc3ccc(OC)cc3)o2)nc1C#N,"inconclusive: 31.6 µM [inhibitor, partial curve, poor fit]",–
O=C(c1nc(-c2cc(Cl)cc(Cl)c2)c2ccccn12)N1CCN(c2ncccn2)CC1,inactive,–
Cc1ccccc1OCCN(C)C(=O)c1cc(=O)[nH]c2ccccc12,"inconclusive: 28.2 µM [inhibitor, single point]",–
